Data on 45 compounds can be found in article PMC4336329 (PLoS ONE, 2015).

Molecules are shown by their SMILES. About 14,000 (4.5%) of roughly 310,000 compounds showed an effect of 50% or more. The effect is printed as a negative number. This is one part of the list.
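Also: peak tail current of the secondary pulse compared with the same well before compound.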

The assay deals with human ether-à-go-go-related gene (hERG) potassium channel (human, UniProt Q12809). Kind of assay: primary screen, population patch clamp on CHO cells stably expressing hERG.
Chain of human ether-à-go-go-related gene (hERG) potassium channel (Q12809 whole entry, looked up): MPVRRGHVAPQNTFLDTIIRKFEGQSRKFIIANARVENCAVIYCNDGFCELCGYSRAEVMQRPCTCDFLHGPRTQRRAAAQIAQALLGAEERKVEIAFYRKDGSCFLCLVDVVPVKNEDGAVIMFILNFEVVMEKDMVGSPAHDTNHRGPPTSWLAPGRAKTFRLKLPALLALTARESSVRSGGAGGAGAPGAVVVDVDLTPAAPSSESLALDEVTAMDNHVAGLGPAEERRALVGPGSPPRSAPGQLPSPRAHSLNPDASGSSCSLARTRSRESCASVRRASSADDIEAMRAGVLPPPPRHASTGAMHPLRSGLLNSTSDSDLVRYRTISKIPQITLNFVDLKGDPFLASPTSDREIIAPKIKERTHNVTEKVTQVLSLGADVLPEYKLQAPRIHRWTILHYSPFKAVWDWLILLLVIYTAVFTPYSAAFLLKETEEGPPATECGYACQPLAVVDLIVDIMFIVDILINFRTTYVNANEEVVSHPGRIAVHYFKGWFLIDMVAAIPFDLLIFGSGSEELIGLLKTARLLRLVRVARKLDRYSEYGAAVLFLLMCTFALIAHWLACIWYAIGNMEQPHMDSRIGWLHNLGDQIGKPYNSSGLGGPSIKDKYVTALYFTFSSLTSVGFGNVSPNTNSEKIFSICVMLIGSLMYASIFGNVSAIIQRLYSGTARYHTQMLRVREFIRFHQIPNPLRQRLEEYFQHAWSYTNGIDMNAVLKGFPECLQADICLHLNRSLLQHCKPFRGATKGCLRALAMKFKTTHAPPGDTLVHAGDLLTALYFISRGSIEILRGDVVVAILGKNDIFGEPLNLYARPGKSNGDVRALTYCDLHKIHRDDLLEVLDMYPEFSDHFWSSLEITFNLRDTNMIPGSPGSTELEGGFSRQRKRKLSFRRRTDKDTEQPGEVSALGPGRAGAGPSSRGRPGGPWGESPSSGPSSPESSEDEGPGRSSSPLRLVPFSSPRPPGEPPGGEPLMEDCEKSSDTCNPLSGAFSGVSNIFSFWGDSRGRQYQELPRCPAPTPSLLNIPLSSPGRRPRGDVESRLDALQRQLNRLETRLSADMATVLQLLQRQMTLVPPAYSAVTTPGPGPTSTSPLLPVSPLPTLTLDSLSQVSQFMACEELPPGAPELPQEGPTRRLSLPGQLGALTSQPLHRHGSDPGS
`CCOC(=O)Cn1c(=O)cnc2ccccc21`: the “hERG current change (%, negative = inhibition) at 10uM” value worked out at 7.24%.

As for `O=C1CNC(=S)N1Cc1cccc(Cl)c1`, the “hERG current change (%, negative = inhibition) at 10uM” value was 7.56%.

As for `Cc1ccc(NC(=O)C(=O)NCC2OCCc3ccccc32)cc1` (stereo not drawn), the “hERG current change (%, negative = inhibition) at 10uM” value is -0.0425%.

As to `Cc1cc(C=O)c(C)n1-c1ccc(N2CCCC2)c([N+](=O)[O-])c1`, the “hERG current change (%, negative = inhibition) at 10uM” value is reported as -13.3%.

Turning to `CNC(=O)c1ccsc1NC(=O)c1ccc(Cl)s1`, the “hERG current change (%, negative = inhibition) at 10uM” value is given as -0.512%.

For `NC(=O)C(c1ccccc1)c1ccc(C(=O)c2ccccc2)cc1` (stereo not drawn), the “hERG current change (%, negative = inhibition) at 10uM” value is 3.08%.

For the compound `Cc1nc(CNC(=O)C2CCC(=O)N(Cc3cccc(F)c3)C2)sc1C` (stereo not drawn), the “hERG current change (%, negative = inhibition) at 10uM” value is 5.68%.

With `COc1cc(NC(=O)Nc2ccc3c(c2)OCO3)cc(OC)c1OC`, the “hERG current change (%, negative = inhibition) at 10uM” value was 31.4%.

On to `Nc1nc(Cl)cc(N2CCOCC2)n1`, for which the “hERG current change (%, negative = inhibition) at 10uM” value came out at 14.1%.

`COc1ccccc1CNC(=O)CN(c1ccc(C)cc1)S(=O)(=O)c1c(C)noc1C`: the “hERG current change (%, negative = inhibition) at 10uM” value was -13.9%.

Turning to `COCCCn1c(=O)c2sccc2n(Cc2ccccc2C)c1=O`, the “hERG current change (%, negative = inhibition) at 10uM” value stood at 0.966%.

As for `Cc1ccc(SCCC(=O)N2CCC(C)CC2)cc1`, the “hERG current change (%, negative = inhibition) at 10uM” value was -0.73%.

As for `CCN(CC)c1ccc(CNc2nc3ccccc3n2C(C)C)cc1`, the “hERG current change (%, negative = inhibition) at 10uM” value is recorded as 1.88%.

Turning to `CCOCCn1c2ccccc2c2nc3ccccc3nc21`, the “hERG current change (%, negative = inhibition) at 10uM” value was -7.31%.

In the case of `Cc1nn(-c2cccc(Cl)c2)c2nc(-c3ccncc3)cc(C(=O)N3CCOCC3)c12`, the “hERG current change (%, negative = inhibition) at 10uM” value is on record as -62.3%.

With `CCc1ccc2oc(-c3ccc(NC(C)=O)cc3)nc2c1`, the “hERG current change (%, negative = inhibition) at 10uM” value was found to be 10.7%.

On to `COc1ccccc1C(=O)Nc1ccc(C(=O)N2CCCC2)cc1`, for which the “hERG current change (%, negative = inhibition) at 10uM” value is given as -5.55%.

`O=C(O)c1ccccc1-c1ccccc1C(=O)NCc1cccc(C(F)(F)F)c1`: the “hERG current change (%, negative = inhibition) at 10uM” value is listed as -0.514%.

On to `C/C=C/C(=O)OCC(=O)Nc1cccc(Br)c1`, for which the “hERG current change (%, negative = inhibition) at 10uM” value was found to be 25.9%.

With `COC(=O)Cc1c(O)ccn(CCc2ccc(S(N)(=O)=O)cc2)c1=O`, the “hERG current change (%, negative = inhibition) at 10uM” value is on record as 10.3%.

For `CCOC(=O)C1(O)CSc2nc3sc(C(=O)O)c(C)c3c(=O)n21` (stereo not drawn), the “hERG current change (%, negative = inhibition) at 10uM” value is on record as 12.6%.

Take `Cl.Clc1ccc(Cn2c(CN3CCCC3)nc3ccccc32)cc1`: the “hERG current change (%, negative = inhibition) at 10uM” value is -74.4%.

With `Cc1cccc(C)c1NC(=O)CN(C)C(=O)c1cccc(S(=O)(=O)N2CCN(c3ccccc3)CC2)c1`, the “hERG current change (%, negative = inhibition) at 10uM” value is given as -14.3%.

Turning to `CCCCn1c(O)c(/C=N/N2CCOCC2)c(=O)[nH]c1=S`, the “hERG current change (%, negative = inhibition) at 10uM” value was 1.15%.

For `O=C(NCCOc1ccccc1)C1CCC(=O)N(Cc2ccc(Cl)cc2)C1` (stereo not drawn), the “hERG current change (%, negative = inhibition) at 10uM” value is recorded as -31.2%.

For `COc1ccc(OC)c(/C=N/NC(=O)c2ccc(=O)[nH]n2)c1`, the “hERG current change (%, negative = inhibition) at 10uM” value worked out at 14.6%.

For `Cc1c(NC(=O)c2cc(-c3ccccc3O)on2)c(=O)n(-c2ccccc2)n1C`, the “hERG current change (%, negative = inhibition) at 10uM” value was 3.5%.

Turning to `Fc1ccc(-c2nnc(CSc3nnc(-c4cccs4)o3)o2)cc1`, the “hERG current change (%, negative = inhibition) at 10uM” value is on record as -11.4%.

Turning to `O=S(=O)(c1cc(F)ccc1F)N1CCN(c2ncccn2)CC1`, the “hERG current change (%, negative = inhibition) at 10uM” value is -19%.

On to `C=CCNC(=O)C(=O)NCC1CCCN1CC` (stereo not drawn), for which the “hERG current change (%, negative = inhibition) at 10uM” value was found to be 4.08%.

Consider `CC(=O)c1cnn(-c2ccccc2)c1C`, for which the “hERG current change (%, negative = inhibition) at 10uM” value is recorded as 19.8%.

Consider `COc1cc(C)c(NC(=O)C(=S)N2CCCC2)cc1C`, for which the “hERG current change (%, negative = inhibition) at 10uM” value was determined as 13%.

As to `CC1C(=O)C(C)(C)C(=O)OC1c1ccccc1` (stereo not drawn), the “hERG current change (%, negative = inhibition) at 10uM” value is 10.6%.

As to `Cc1ccc(C(=O)Oc2oc(-c3ccccc3)nc2C=Nc2ccc(N(C)C)cc2)cc1`, the “hERG current change (%, negative = inhibition) at 10uM” value was 14.5%.

Consider `CC(CN1CCCCC1)OC(=O)c1cc2ccccc2o1.Cl` (stereo not drawn), for which the “hERG current change (%, negative = inhibition) at 10uM” value is recorded as 5.66%.

With `O=C(c1ccccc1)N1CCN(c2ccccc2F)CC1`, the “hERG current change (%, negative = inhibition) at 10uM” value amounted to 10.1%.

Take `Fc1ccc(N2CCN(c3nc(-c4ccco4)cc(C(F)(F)F)n3)CC2)cc1`: the “hERG current change (%, negative = inhibition) at 10uM” value was 15.2%.

Take `O=C(C(Cc1ccccc1)N1C(=O)C2C3CCC(C3)C2C1=O)N1CCCCC1` (stereo not drawn): the “hERG current change (%, negative = inhibition) at 10uM” value stood at 3.51%.

For `CNC(=S)NNC(=O)c1sccc1OCc1ccc(Cl)cc1Cl`, the “hERG current change (%, negative = inhibition) at 10uM” value is reported as 7.37%.

Take `O=C1[C@H]2[C@@H](c3ccc(Cl)cc3)N3C(=O)N(c4cccc(Br)c4)C(=O)[C@@]3(Cc3ccc(Cl)cc3)[C@H]2C(=O)N1C1CCCCC1`: the “hERG current change (%, negative = inhibition) at 10uM” value is given as -3.71%.

As to `C/C(=N\NC(=O)c1sccc1C)c1ccncc1`, the “hERG current change (%, negative = inhibition) at 10uM” value amounted to 10.8%.

As to `CC(=O)c1cccc(NC(=O)C2CCCC2)c1`, the “hERG current change (%, negative = inhibition) at 10uM” value was determined as 1%.

Regarding `Cc1ccc(CNC(=O)C2CCCN2C(=O)NCc2ccccc2)cc1` (stereo not drawn), the “hERG current change (%, negative = inhibition) at 10uM” value is recorded as -31.9%.

Consider `CCOC(=O)c1cc(NC(=O)Nc2ccccc2OC)c(C)nc1C`, for which the “hERG current change (%, negative = inhibition) at 10uM” value is listed as -11.4%.

Take `Cc1cccc(OCCCn2c(=O)sc3ccccc32)c1`: the “hERG current change (%, negative = inhibition) at 10uM” value is given as -0.333%.
